From the supplement of paper PMC8728848 come the findings set out here.

What all share (test): glycan array binding signal (z-score within array); higher = stronger binding
Common to all, as to settings: glycan notation: IUPAC condensed, linker removed

The target of assay [1] is Neu5Ac(a2-8)Neu5Ac(a2-8)Neu5Ac. In short, it runs like this: (§1)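 Arrays were curated from the Consortium for Functional Glycomics database, 3228 in total, and kept only where the protein sequence was available. Binding is expressed as a within-array Z-score. This score was averaged across arrays of the same protein sequence at different concentrations or buffers and across linkers, and negative values can be read as non-binding.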

Assay [2] deals with Neu5Ac(a2-8)Neu5Ac(a2-8)Neu5Ac(a2-3)Gal(b1-4)Glc. A digest of the protocol:
as §1

The target in assay [3] is Neu5Ac(a2-8)Neu5Ac(a2-8)Neu5Ac(a2-3)[Gal(b1-3)GalNAc(b1-4)]Gal(b1-4)Glc. A digest of the protocol: as §1
Assay [4] addresses Neu5Ac(a2-8)Neu5Ac(a2-8)Neu5Ac(a2-3)[GalNAc(b1-4)]Gal(b1-4)Glc. A digest of the protocol: as §1
In assay [5] the target is Neu5Ac(a2-8)Neu5Ac(a2-8)Neu5Ac(a2-8)Neu5Ac(a2-3)[GalNAc(b1-4)]Gal(b1-4)Glc. A digest of the protocol: as §1
The target of assay [6] is Neu5Ac(a2-8)Neu5Gc(a2-3)Gal(b1-4)GlcNAc. In short, it runs like this: as §1
In assay [7] the target is Neu5Ac(b2-6)Gal(b1-4)GlcNAc. A digest of the protocol: as §1
The next assay addresses Neu5Ac(b2-6)GalNAc. A digest of the protocol:
as §1

Assay [8] has as its target Neu5Ac9Ac(a2-3)Gal(b1-3)GlcNAc. In short, it runs like this: as §1
The target of assay [9] is Neu5Ac9Ac(a2-3)Gal(b1-4)GlcNAc. In short, it runs like this:
as §1

The target of assay [10] is Neu5Ac9Ac(a2-6)Gal(b1-4)GlcNAc. In short, it runs like this: as §1
Assay [11] addresses Neu5Gc(a2-3)Gal(b1-3)GlcNAc. In short, it runs like this: as §1
The target in assay [12] is Neu5Gc(a2-3)Gal(b1-3)[Fuc(a1-4)]GlcNAc. A digest of the protocol: as §1
Another assay concerns the target Neu5Gc(a2-3)Gal(b1-4)Glc. In short, it runs like this:
as §1

Assay [13] concerns the target Neu5Gc(a2-3)Gal(b1-4)GlcNAc. A digest of the protocol: as §1
Assay [14] addresses Neu5Gc(a2-3)Gal(b1-4)GlcNAc(b1-3)Gal(b1-4)GlcNAc(b1-2)Man(a1-3)[Neu5Gc(a2-3)Gal(b1-4)GlcNAc(b1-3)Gal(b1-4)GlcNAc(b1-2)Man(a1-6)]Man(b1-4)GlcNAc(b1-4)GlcNAc. A digest of the protocol:
as §1

The target in assay [15] is Neu5Gc(a2-3)Gal(b1-4)[Fuc(a1-3)]GlcNAc. In short, it runs like this:
as §1

In assay [16] the target is Neu5Gc(a2-6)Gal(b1-4)GlcNAc. In short, it runs like this: as §1
A further assay concerns the target Neu5Gc(a2-6)GalNAc. A digest of the protocol: as §1
The target in assay [17] is Neu5Gc(a2-8)Neu5Ac(a2-3)Gal(b1-4)GlcNAc. In short, it runs like this: as §1
Assay [18] concerns the target Neu5Gc(a2-8)Neu5Gc(a2-3)Gal(b1-4)GlcNAc. A digest of the protocol:
as §1

For assay [19], the target named is Neu5Gc(a2-8)Neu5Gc(a2-3)Gal(b1-4)GlcNAc(b1-3)Gal(b1-4)GlcNAc. In short, it runs like this:
as §1

Assay [20] addresses Neu5Gc(a2-8)Neu5Gc(a2-6)Gal(b1-4)GlcNAc. A digest of the protocol: as §1
For assay [21], the target named is Neu5Gc(b2-6)Gal(b1-4)GlcNAc. A digest of the protocol: as §1

Some of the results follow.

B1: Gal 1 (Mus musculus), P16045 (protein)
chain: MACGLVASNLNLKPGECLKVRGEVASDAKSFVLNLGKDSNNLCLHFNPRFNAHGDANTIVCNTKEDGTWGTEHREPAFPFQPGSITEVCITFDQADLTIKLPDGHEFKFPNRLNMEAINYMAADGDFKIKCVAFE
For the molecule B1, the “glycan array binding signal (z-score)” value in [1] was -0.343; in assay [2], -0.347; in [3] it was -0.333; in assay [4], -0.144; in [5], -0.422; in [6], -0.094. Besides, the “glycan array binding signal (z-score)” value in [7] is -0.319; with Neu5Ac(b2-6)GalNAc it was -0.21; in assay [8], -0.121; in assay [9], -0.091; in assay [10], -0.419; in assay [11], -0.106. Moreover, the “glycan array binding signal (z-score)” value in assay [12] was -0.379; in the assay with Neu5Gc(a2-3)Gal(b1-4)Glc, -0.248; in assay [13] it was -0.242; in assay [14] it was 1.49; in assay [15] it was -0.407; in assay [16] it was -0.4. Moreover, the “glycan array binding signal (z-score)” value is -0.293 in the assay with Neu5Gc(a2-6)GalNAc; -0.226 in [17]; -0.193 in assay [18]; 0.426 in assay [19]; -0.465 in assay [20]; -0.306 in assay [21].
